Results published in the RNAGym collection of RNA variant scans (doi:10.1073/pnas.2313332121).
This sample is rich in variants without activity.

B1: TPR 5TU (parent)
chain: GGAUCUUCUCGAUCUAACAAAAAAGACAAAUCUGCCACAAAGCUUGAGAGCAUCUUCGGAUGCAGAGGCGGCAGCCUUCGGUGGCGCGAUAGCGCCAACGUUCUCAACUAUGACACGCAAAACGCGUGCUCCGUUGAAUGGAGUUUAUCAUG

Variants of: B1
Assay: polymerase ribozyme fitness, log enrichment relative to wild type (log ratio); higher = more active; in vitro selection for triplet polymerase activity
How it was run: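 Libraries of mutants in each subunit of a heterodimeric triplet polymerase ribozyme were generated by PCR and transcribed. In triplicate, each went through one in vitro selection round: annealing with biotinylated primer, partner subunit and triplets; frozen incubation at −7 °C; gel excision of extended constructs; streptavidin-bead capture; RT-PCR. Fitness, taken from Illumina sequencing of input and output libraries, is the logarithm of a genotype's enrichment over wild-type enrichment, averaged across replicates with inverse-variance weights. The logarithm is base 2, and genotypes needed ≥10 input reads and ≥1 read per output to be kept.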

Q: Which “polymerase ribozyme fitness (log ratio)” value does the source give for C32A U146C here?
A: ≤ -4.2

Q: For U31C U56A C93G A97U U151A, which “polymerase ribozyme fitness (log ratio)” value is on record?
A: ≤ -4.2

Q: With U31G G84C A97U U127G C149G as the variant, how does the “polymerase ribozyme fitness (log ratio)” value read?
A: ≤ -4.2

Q: For C32A A40U G48C G88A U134A, which “polymerase ribozyme fitness (log ratio)” value is on record?
A: ≤ -4.2

Q: Which “polymerase ribozyme fitness (log ratio)” value does the source give for U31G C36A U44G G50U A89G C99U A115C U151C here?
A: ≤ -4.2

Q: Which “polymerase ribozyme fitness (log ratio)” value does the source give for U31G C35G C43U C72A G92A here?
A: ≤ -4.2

Q: Which “polymerase ribozyme fitness (log ratio)” value does the source give for U31G C32U C72A C123G G152A here?
A: ≤ -4.2

Q: With C32G C38A C79G G126U U135C U148A U151G as the variant, how does the “polymerase ribozyme fitness (log ratio)” value read?
A: ≤ -4.2

Q: Which “polymerase ribozyme fitness (log ratio)” value does the source give for U31A C38U U45A U53A C87U C93A U102G here?
A: ≤ -4.2

Q: For U31G G59A, which “polymerase ribozyme fitness (log ratio)” value is on record?
A: 0.625

Q: Which “polymerase ribozyme fitness (log ratio)” value does the source give for C32U A49U C51U C75U U102C U146G here?
A: ≤ -4.2

Q: Which “polymerase ribozyme fitness (log ratio)” value does the source give for U31G A47C A60C G65U here?
A: ≤ -4.2

Q: For C32G C69A A89U U134G, which “polymerase ribozyme fitness (log ratio)” value is on record?
A: ≤ -4.2

Q: For A30U G46U U55G C79A U101G C108G C116U A119G G136U, which “polymerase ribozyme fitness (log ratio)” value is on record?
A: ≤ -4.2

Q: With C32A G71C A89U as the variant, how does the “polymerase ribozyme fitness (log ratio)” value read?
A: ≤ -4.2

Q: For C32A G48A G50A U78A A113U, which “polymerase ribozyme fitness (log ratio)” value is on record?
A: ≤ -4.2

Q: For U31A C32G U56A G62U A64U C95U A122C, which “polymerase ribozyme fitness (log ratio)” value is on record?
A: ≤ -4.2

Q: Which “polymerase ribozyme fitness (log ratio)” value does the source give for C32U A49U G68A C87U C105G A137U here?
A: ≤ -4.2

Q: With C32G C57A U82C G88U C105U as the variant, how does the “polymerase ribozyme fitness (log ratio)” value read?
A: ≤ -4.2

Q: Which “polymerase ribozyme fitness (log ratio)” value does the source give for C32G G50C C51U G88A A110G here?
A: -4.19

Q: With U31C C35A C51U C76G G80C C96U A119G U134A as the variant, how does the “polymerase ribozyme fitness (log ratio)” value read?
A: ≤ -4.2

Q: With C32G C54A G59C C93U C105U as the variant, how does the “polymerase ribozyme fitness (log ratio)” value read?
A: ≤ -4.2

Q: For U31G U45A A49C U82G C85U C96A A97G A110U G117U G128C, which “polymerase ribozyme fitness (log ratio)” value is on record?
A: ≤ -4.2

Q: For C32U A37U C93A A97G U144G, which “polymerase ribozyme fitness (log ratio)” value is on record?
A: ≤ -4.2

Q: With C32G C85U A110G G126C as the variant, how does the “polymerase ribozyme fitness (log ratio)” value read?
A: ≤ -4.2

Q: With C32G G34U U55A U56A G80A U134A as the variant, how does the “polymerase ribozyme fitness (log ratio)” value read?
A: ≤ -4.2

Q: With U31C A98U U134A as the variant, how does the “polymerase ribozyme fitness (log ratio)” value read?
A: -1.41

Q: With C32U A60U G84U C108U U109C as the variant, how does the “polymerase ribozyme fitness (log ratio)” value read?
A: ≤ -4.2

Q: With C32A C75A C87A A110G A119C as the variant, how does the “polymerase ribozyme fitness (log ratio)” value read?
A: ≤ -4.2

Q: Which “polymerase ribozyme fitness (log ratio)” value does the source give for U31C A37C G67C G68U G86A U144C here?
A: ≤ -4.2

Q: Which “polymerase ribozyme fitness (log ratio)” value does the source give for C32A G62A C63U C114G C116U A121C here?
A: ≤ -4.2

Q: With C32A C87A A115C as the variant, how does the “polymerase ribozyme fitness (log ratio)” value read?
A: ≤ -4.2

Q: For C32A C38U U55A G94A G126C, which “polymerase ribozyme fitness (log ratio)” value is on record?
A: -3.92

Q: Which “polymerase ribozyme fitness (log ratio)” value does the source give for U31A G46C A47C G94A U145G here?
A: ≤ -4.2

Q: With U31G C38A C93G G141C as the variant, how does the “polymerase ribozyme fitness (log ratio)” value read?
A: ≤ -4.2

Q: For U31C G34C A39U G83U C116G, which “polymerase ribozyme fitness (log ratio)” value is on record?
A: ≤ -4.2

Q: Which “polymerase ribozyme fitness (log ratio)” value does the source give for C32U A39U A40U U44A C125A here?
A: ≤ -4.2

Q: For U31C C93G, which “polymerase ribozyme fitness (log ratio)” value is on record?
A: -3.06

Q: For C32G G50U U104C A107G G126C U146G, which “polymerase ribozyme fitness (log ratio)” value is on record?
A: ≤ -4.2

Q: For C32U A52C U55G C118U, which “polymerase ribozyme fitness (log ratio)” value is on record?
A: ≤ -4.2

Q: Which “polymerase ribozyme fitness (log ratio)” value does the source give for U31C C32A C57U G84A G100A A121U G140C A147U here?
A: ≤ -4.2

Q: Which “polymerase ribozyme fitness (log ratio)” value does the source give for C32A C35U G68U G80A A91U C96U A138U here?
A: ≤ -4.2

Q: For A30U G50U U56G G58C G152A, which “polymerase ribozyme fitness (log ratio)” value is on record?
A: ≤ -4.2

Q: Which “polymerase ribozyme fitness (log ratio)” value does the source give for U31C C57G C76A C93A C95G here?
A: ≤ -4.2

Q: For U31G U61A A66U U77A G86U C95G C123G, which “polymerase ribozyme fitness (log ratio)” value is on record?
A: ≤ -4.2

Q: Which “polymerase ribozyme fitness (log ratio)” value does the source give for A30U G83C G128A U135C here?
A: ≤ -4.2

Q: With C32U A41U A91C C125G as the variant, how does the “polymerase ribozyme fitness (log ratio)” value read?
A: ≤ -4.2

Q: For C32U A52G U55G G94C, which “polymerase ribozyme fitness (log ratio)” value is on record?
A: -3.43

Q: Which “polymerase ribozyme fitness (log ratio)” value does the source give for U31G C35G A52C G70A C116U U139A A142C here?
A: ≤ -4.2

Q: For C32G U53A U56G C57U A97U, which “polymerase ribozyme fitness (log ratio)” value is on record?
A: ≤ -4.2

Q: With C32A U61G C76A C96U as the variant, how does the “polymerase ribozyme fitness (log ratio)” value read?
A: ≤ -4.2

Q: Which “polymerase ribozyme fitness (log ratio)” value does the source give for C32G C57A G58C U77G C123U here?
A: ≤ -4.2

Q: For U31G C85U C87A U109G G128A, which “polymerase ribozyme fitness (log ratio)” value is on record?
A: ≤ -4.2

Q: Which “polymerase ribozyme fitness (log ratio)” value does the source give for U31G C43A G94C G128A G141U G152U here?
A: ≤ -4.2

Q: Which “polymerase ribozyme fitness (log ratio)” value does the source give for C32G U45A C54A C75U G88U A142U here?
A: ≤ -4.2

Q: For A30U U33G G42A C54G C57A U78G C85A C105U, which “polymerase ribozyme fitness (log ratio)” value is on record?
A: ≤ -4.2

Q: For C32U A39G C54U G59A C96A, which “polymerase ribozyme fitness (log ratio)” value is on record?
A: ≤ -4.2

Q: For C32U A60U A73U C93U, which “polymerase ribozyme fitness (log ratio)” value is on record?
A: ≤ -4.2

Q: Which “polymerase ribozyme fitness (log ratio)” value does the source give for U31C C116A here?
A: 1.96

Q: Which “polymerase ribozyme fitness (log ratio)” value does the source give for C32U C35G C85A U90A A107G U151G here?
A: ≤ -4.2

Q: With A30U G50U G74U G94C as the variant, how does the “polymerase ribozyme fitness (log ratio)” value read?
A: ≤ -4.2

Q: For A30U G50A A66C U77A C93A G133C G140C U151G, which “polymerase ribozyme fitness (log ratio)” value is on record?
A: ≤ -4.2

Q: Which “polymerase ribozyme fitness (log ratio)” value does the source give for U31G C35A C87A U101G C108U A120G C149A U151A here?
A: ≤ -4.2

Q: Which “polymerase ribozyme fitness (log ratio)” value does the source give for U31G A39G U55A A66C G68C C69U G117A here?
A: ≤ -4.2

Q: For C32G A40U C63U G81C A113G C125U U135C U148A, which “polymerase ribozyme fitness (log ratio)” value is on record?
A: ≤ -4.2

Q: With C32A C38A G70A C95U as the variant, how does the “polymerase ribozyme fitness (log ratio)” value read?
A: ≤ -4.2

Q: With C32A C38U G70A U78A A91U C96G as the variant, how does the “polymerase ribozyme fitness (log ratio)” value read?
A: ≤ -4.2

Q: For U31G A41C C54G A73U C79A G143C, which “polymerase ribozyme fitness (log ratio)” value is on record?
A: ≤ -4.2

Q: For U31A C36G C95G, which “polymerase ribozyme fitness (log ratio)” value is on record?
A: ≤ -4.2

Q: Which “polymerase ribozyme fitness (log ratio)” value does the source give for C32G U33G A47C U56A G83U G92C C131A here?
A: ≤ -4.2

Q: With C32U A39G A41C U56C C79G as the variant, how does the “polymerase ribozyme fitness (log ratio)” value read?
A: ≤ -4.2

Q: Which “polymerase ribozyme fitness (log ratio)” value does the source give for C32A A37C C95U here?
A: ≤ -4.2

Q: For C32G U53C C76A, which “polymerase ribozyme fitness (log ratio)” value is on record?
A: -4.09

Q: Which “polymerase ribozyme fitness (log ratio)” value does the source give for C32G A37C G48A U56G G80A G84U A97U here?
A: ≤ -4.2

Q: Which “polymerase ribozyme fitness (log ratio)” value does the source give for U31C A41U G80U G86U C105U A115C A119C G140A U144A here?
A: ≤ -4.2

Q: For U31A A64G G83U G94U A138U A147U, which “polymerase ribozyme fitness (log ratio)” value is on record?
A: ≤ -4.2

Q: For U31A U55A C87U A91C C93A C96U A119G G126A G141U, which “polymerase ribozyme fitness (log ratio)” value is on record?
A: ≤ -4.2

Q: For U31A G48U C51G C114U U148A, which “polymerase ribozyme fitness (log ratio)” value is on record?
A: ≤ -4.2

Q: For U31C G92C G126U, which “polymerase ribozyme fitness (log ratio)” value is on record?
A: 0.158

Q: For U31G G42U U45A U78G G84U A91C A97U A115U, which “polymerase ribozyme fitness (log ratio)” value is on record?
A: ≤ -4.2

Q: Which “polymerase ribozyme fitness (log ratio)” value does the source give for C32G U45G U55A G71U G94A C96G C149A here?
A: ≤ -4.2

Q: Which “polymerase ribozyme fitness (log ratio)” value does the source give for A30U U53A U102G G117U here?
A: ≤ -4.2

Q: With C32A G46A C93A A98C C99U A107C G152U as the variant, how does the “polymerase ribozyme fitness (log ratio)” value read?
A: ≤ -4.2

Q: For C32G U33A C43G G81U G84A A142G, which “polymerase ribozyme fitness (log ratio)” value is on record?
A: ≤ -4.2
